Results: PMC4149798
Read-outs that look alike come from different tables or passages of the source. These are yes or no findings as the source states them, for the method shown. Some entries that bind do so weakly or less than the wild type. For some of these results: Sequences can lack the tags named with a protein.

The chains behind the UniProt entries cited, without tags or fusion partners. Where a name states a change or a piece, a line headed by the entry shows the natural chain unless it says otherwise.
UniProt P05205: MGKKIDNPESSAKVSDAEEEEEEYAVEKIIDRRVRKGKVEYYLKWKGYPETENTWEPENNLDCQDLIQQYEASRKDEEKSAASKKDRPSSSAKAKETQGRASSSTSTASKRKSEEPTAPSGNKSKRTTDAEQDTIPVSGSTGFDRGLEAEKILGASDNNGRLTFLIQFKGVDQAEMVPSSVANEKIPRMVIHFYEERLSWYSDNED
UniProt P45975: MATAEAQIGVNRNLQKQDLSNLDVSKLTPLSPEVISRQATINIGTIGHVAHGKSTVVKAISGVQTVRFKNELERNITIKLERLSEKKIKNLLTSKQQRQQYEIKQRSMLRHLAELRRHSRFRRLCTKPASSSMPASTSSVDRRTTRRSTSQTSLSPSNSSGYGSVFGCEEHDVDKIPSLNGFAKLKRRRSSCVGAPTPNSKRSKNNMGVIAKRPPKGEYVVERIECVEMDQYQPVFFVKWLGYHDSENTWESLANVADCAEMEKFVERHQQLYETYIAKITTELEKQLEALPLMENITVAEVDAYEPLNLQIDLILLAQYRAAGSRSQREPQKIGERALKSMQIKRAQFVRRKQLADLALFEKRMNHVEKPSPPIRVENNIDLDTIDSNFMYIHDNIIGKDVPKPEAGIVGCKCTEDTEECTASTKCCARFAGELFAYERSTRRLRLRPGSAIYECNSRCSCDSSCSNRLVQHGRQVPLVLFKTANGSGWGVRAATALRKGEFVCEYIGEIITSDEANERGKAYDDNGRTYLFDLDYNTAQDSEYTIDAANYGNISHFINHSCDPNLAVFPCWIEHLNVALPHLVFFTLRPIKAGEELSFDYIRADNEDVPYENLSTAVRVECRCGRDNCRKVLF

How the values were obtained:
[1] = biological target: T1, purified native H1 (in reconstituted chromatin) (Drosophila) (UniProt P02255); assay: in vitro ChIP; about 0.5 pmol His6-tagged protein with 0.2 pmol plasmid DNA, H1-containing or H1-free reconstituted chromatin; 50 mM Tris-HCl pH 7.9, 5 mM MgCl2, 4 mM DTT, 2 ug/ml BSA, 15 min at 27°C; cross-linked, immunoprecipitated with anti-His6, plasmid fragment measured by real-time PCR; both purified
T1 sequence: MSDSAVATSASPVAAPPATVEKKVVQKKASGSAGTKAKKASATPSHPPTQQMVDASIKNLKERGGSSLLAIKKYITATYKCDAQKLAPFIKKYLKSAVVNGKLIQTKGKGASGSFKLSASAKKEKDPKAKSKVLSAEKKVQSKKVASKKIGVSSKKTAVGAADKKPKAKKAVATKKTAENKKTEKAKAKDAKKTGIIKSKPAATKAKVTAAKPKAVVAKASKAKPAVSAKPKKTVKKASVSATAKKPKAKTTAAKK

[2] = biological target: T2, GST fusion of H1 C-terminal domain (H1-C, 120-256) (Drosophila) (UniProt P02255); assay: pull-down; GST or GST fusion proteins incubated with purified STAT92E-His6, recovered on glutathione-Sepharose; bound STAT92E-His6 detected by anti-His6 western; both purified
T2 sequence: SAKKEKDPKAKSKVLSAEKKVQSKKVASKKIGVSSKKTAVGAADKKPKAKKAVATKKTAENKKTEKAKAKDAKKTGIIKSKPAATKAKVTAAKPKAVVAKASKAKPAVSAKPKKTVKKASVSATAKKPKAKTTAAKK

[3] = biological target: T3, GST fusion of H1 N-terminal domain (H1-N, amino acid residues 1-40) (Drosophila) (UniProt P02255); assay: as above
T3 sequence: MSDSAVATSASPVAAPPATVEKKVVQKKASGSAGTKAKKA

[4] = biological target: T4, GST fusion of H1 globular domain (H1-G, residues 41-119) (Drosophila) (UniProt P02255); assay: as above
T4 sequence: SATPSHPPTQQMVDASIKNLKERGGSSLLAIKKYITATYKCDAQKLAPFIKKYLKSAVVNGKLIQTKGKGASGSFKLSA

[5] = biological target: T5, GST-H1 (full-length linker histone H1 fused to glutathione-S-transferase) (Drosophila) (UniProt P02255); assay: as above
T5 sequence: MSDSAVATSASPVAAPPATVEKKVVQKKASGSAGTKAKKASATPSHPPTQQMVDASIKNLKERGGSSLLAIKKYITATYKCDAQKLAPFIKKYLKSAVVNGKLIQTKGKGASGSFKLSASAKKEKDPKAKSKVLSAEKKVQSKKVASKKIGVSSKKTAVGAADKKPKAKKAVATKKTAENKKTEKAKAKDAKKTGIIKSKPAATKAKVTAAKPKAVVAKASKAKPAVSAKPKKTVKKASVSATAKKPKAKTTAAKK

[6] = biological target: GST-HP1 (full-length heterochromatin protein 1 fused to GST) (Drosophila) (UniProt P05205); assay: as above
[7] = biological target: T1, purified native H1 (in reconstituted chromatin) (Drosophila); assay: in vitro ChIP; about 0.5 pmol His6-tagged protein with 0.2 pmol plasmid DNA, H1-containing or H1-free reconstituted chromatin; 50 mM Tris-HCl pH 7.9, 5 mM MgCl2, 4 mM DTT, 2 ug/ml BSA, 15 min at 27°C; cross-linked, immunoprecipitated with anti-His6, plasmid fragment measured by real-time PCR; both purified; remark: listed apart in the source

With “Su(var)3-9-His6 (from UniProt P45975 1-635) (enzyme)” the binding [1] was “binds”.

B1: STAT92E-His6 (protein, UniProt Q24151 1-761)
chain: MSLWKRISSHVDCEQRMAAYYEEKGMLELRLCLAPWIEDRIMSEQITPNTTDQLERVALKFNEDLQQKLLSTRTASDQALKFRVVELCALIQRISAVELYTHLRSGLQKELQLVTEKSVAATAGQSMPLNPYNMNNTPMVTGYMVDPSDLLAVSNSCNPPVVQGIGPIHNVQNTGIASPALGMVTPKVELYEVQHQIMQSLNEFGNCANALKLLAQNYSYMLNSTSSPNAEAAYRSLIDEKAAIVLTMRRSFMYYESLHEMVIHELKNWRHQQAQAGNGAPFNEGSLDDIQRCFEMLESFIAHMLAAVKELMRVRLVTEEPELTHLLEQVQNAQKNLVCSAFIVDKQPPQVMKTNTRFAASVRWLIGSQLGIHNNPPTVECIIMSEIQSQRFVTRNTQMDNSSLSGQSSGEIQNASSTMEYQQNNHVFSASFRNMQLKKIKRAEKKGTESVMDEKFALFFYTTTTVNDFQIRVWTLSLPVVVIVHGNQEPQSWATITWDNAFAEIVRDPFMITDRVTWAQLSVALNIKFGSCTGRSLTIDNLDFLYEKLQREERSEYITWNQFCKEPMPDRSFTFWEWFFAIMKLTKDHMLGMWKAGCIMGFINKTKAQTDLLRSVYGIGTFLLRFSDSELGGVTIAYVNENGLVTMLAPWTARDFQVLNLADRIRDLDVLCWLHPSDRNASPVKRDVAFGEFYSKRQEPEPLVLDPVTGYVKSTLHVHVCRNGENGSTSGTPHHAQESMQLGNGDFGMADFDTITNFENF
For B1, the binding [2] was “binds”, the binding [3] was “no binding” and the binding [4] was “no binding”. For the same molecule, the binding [5] was “binds”, the binding [6] was “binds” and the binding [7] was “binds”.
